In the RNAGym collection of RNA variant scans (doi:10.7554/elife.90254) one finds self-cleavage data, which are given here for 167 variants.

The source gives no read counts; variants with many changes may rest on few reads.

To fix the notation:
B1: LINE1-mini (parent)
chain: GGCAGAGCUCAACACAGCGUGGCAAAGUGGCUGUGGCUAGACUGCC

The data set covers variants of B1. Kind of data set: self-cleavage, relative activity (ratio to wild type); higher = more cleavage; in vitro, sequencing; the parent is a self-cleaving ribozyme.
Consider A4C G17C A24C G29A U34G, for which the self-cleavage was found to be 0.11. Then A4G A6C C13G C18U A25G A26G U34G, with 0.02.

With A4C G7U U28A A41G, the self-cleavage was 0.15. The figure for A4G A6C U28A G29U U38A G44C is 0.07; for A4C U9C A16U C31A it is 0; for A4G A14C C42A it is 0.34. The figure for A4C C13U C42G is 0.08.

For the variant A4C U28A G29C C45U, the self-cleavage was found to be 0.08. The figure for A4C U28C G33A G35A is 0.01. The figure for A4C G40U U43C is 0.06; for A4C C13U G17C G19A A26U it is 0.09. The figure for A4C G19C C23A is 0.06.

For A4C C10U C37A, the self-cleavage was 0.09.

On to A4G A6G C10G A39G, for which the self-cleavage was 0.01. Then A4G A11C A14U G22C, with 0.02. Then A4C G40C C46U, with 0.06; and A4C G21A C31U, with 0.02; and A4G A11C U28G, with 0.01. Then A4G A12C A24C C42U, with 0.03; and A4C U28A G30U G35U G40A, with 0.04. For A4C U9A A39U A41G C45G, the self-cleavage was 0. With A4C G5C C23U G27A U28A U38C, the self-cleavage came out at 0.01. The figure for A4C G7C G29A C37G is 0.04; for A4C C23U U32G it is 0.23.

Regarding A4C G17A C31U C45A, the self-cleavage amounted to 0.11.

Turning to A4C U28G C31A G35C C37A, the self-cleavage amounted to 0.03.

For A4C C13A U32A, the self-cleavage was 0.05.

Take A4G A11U G36C: the self-cleavage worked out at 0.02. In the case of A4C C13A A14C U20A G30C, the self-cleavage was 0.02. The figure for A4C G44C C45G is 0.02. For the variant A4C G19U A26C U34A C42G U43G, the self-cleavage was 0.03. Then A4C C13A G30C A39U, with 0.04; and A4C C10U A11U A26G G29A, with 0.03; and A4C G27A U28G C46U, with 0.23. The figure for A4C G7U C13A G44A is 0.64; for A4C U9C G33U A41G it is 0.03; for A4C U20G G40C C45G it is 0.15.

Consider A4G A11U A26C G27A, for which the self-cleavage is 0.01. Then A4C C10A U38C A39C, with 0.01.

With A4C C13U U20G, the self-cleavage was 0.02.

A4C C10G U20C G40C: the self-cleavage was determined as 0.01. The figure for A4G A6G U20G G36U is 0.01; for A4C C15A G17U G40U it is 0. Then A4G A16U G17U G40A A41C, with 0.04; and A4G A14U G17A, with 0.1. Regarding A4C C18U U28C, the self-cleavage is 0.03.

For the variant A4C C10U G21U C46A, the self-cleavage was 0.03. The figure for A4C U34A G35C is 0.09. The figure for A4C U34A G35A is 0.04; for A4C G5C A14U G22C it is 0.01. The figure for A4G A11U G27C is 0.23. A4C G7A C13G C45A: the self-cleavage came to 0.31. The figure for A4C G5C G29A U38A is 0.05; for A4C G29C C45G it is 0.15; for A4C G5U G22U G36C it is 0.09. The figure for A4C G7C U20A is 0.33; for A4C U9A C23G A39U U43C it is 0.02. The figure for A4C C18U G30C A39U is 0.23; for A4G A12G C15A A25U U43A it is 0.01. For A4C U9A C45G, the self-cleavage was determined as 0.02. Then A4C U9A C45U, with 0.04; and A4C G22U G44C, with 0.06. In the case of A4C G5C A6G C10U C13G A16G G19A, the self-cleavage turned out to be 0.01. A4C G17U C45U: the self-cleavage was 0.02.

As to A4G A14C A26U, the self-cleavage was 0.12. Then A4G A6U U20G A25U C31U C46U, with 0.06; and A4G A16G G19U G40C, with 0.03. The figure for A4C G33A G36A is 0.16; for A4C G33C A41U it is 0.09. The figure for A4G A12G G22U C31G A39G is 0.02. Consider A4C U9A C18U, for which the self-cleavage is 0.21.

Regarding A4C G5U C45A, the self-cleavage is 0.08. As for A4C C18A A26U, the self-cleavage came out at 0.24. Then A4C G21U U34A C37U U43G, with 0.03.

As for A4C G5U C42U, the self-cleavage was 0.31. Then A4G A14G G27A, with 0.26; and A4C U9A U28A C46G, with 0.05; and A4C U9A C13A G27U, with 0.71. Then A4C C31U C37U C45A, with 0.04; and A4C G17A A24C, with 0.2; and A4C G19C G44A, with 0.07. Then A4C C13G A26C, with 0.45; and A4C U9G C31A A39U U43G C45U, with 0.01; and A4C G5U A39G G40A, with 0.06. Turning to A4C G29A C46A, the self-cleavage is 0.01. Then A4G A26G U34A C42U, with 0.13; and A4C G33U G40U, with 0.14.

Regarding A4G A11C C18U A24U, the self-cleavage was found to be 0.02. As for A4G A25U G33U, the self-cleavage came to 0.04.

Take A4G A12U G36C: the self-cleavage is 0.06.

For A4C G27U C46A, the self-cleavage came to 0.12. Then A4G A12G G35U, with 0; and A4C G19U G22U G35C C42G U43A, with 0.01. A4C C15A C46A: the self-cleavage turned out to be 0.01. The figure for A4C C13U G22U is 0.61; for A4C G5U C13A it is 0.26; for A4C G7C A41C U43A it is 0.01. The figure for A4C C18U G22C G33A is 0.04; for A4G A16U G19A G27C C42G it is 0.04; for A4C C23A G30U it is 0.23. The figure for A4C G22C U43G is 0.18; for A4C C23A G40A it is 0.15.

In the case of A4C G35C G44C, the self-cleavage was found to be 0.02. Then A4C C13U A24U C37U, with 0.09; and A4C U20A C46G, with 0.04.

Regarding A4C G40A C42G, the self-cleavage is 0.02. Turning to A4G A14G A16C C42U, the self-cleavage was 0.49.

With A4C G7C G21C, the self-cleavage came out at 0.06.

A4C U9C U43C C45A: the self-cleavage came to 0.03. Then A4G A6G U20C U28G, with 0.05; and A4G A12G C13U G17A, with 0.01. Then A4C G5U A6U C8G A12G, with 0.02; and A4C C15U U38C, with 0.68; and A4G A11C U34C, with 0.04. With A4C G5U U9A A16U G36U, the self-cleavage amounted to 0.03.

With A4C G19A U32C, the self-cleavage amounted to 0.1. The figure for A4G A6C A16G is 0.83; for A4C C23A A25C C31U C46A it is 0.03; for A4C G22A C23A G27U it is 0.04.

As to A4C U20G U34A C37G, the self-cleavage worked out at 0.02. Then A4C C13G G19A, with 0.04; and A4G A16G U28G A41G C45G, with 0.02; and A4C C13G C31G G36U G44U, with 0.02.

For the variant A4C C13U G30C, the self-cleavage was 0.08. The figure for A4C C18A A25G G30A A39C is 0. As to A4C G17A U32A G44A, the self-cleavage stood at 0.02. Then A4G A14U U28G G30U, with 0.15. The figure for A4C C10U A11C C18G A25U is 0.02; for A4G A11G C37G it is 0; for A4C U9C G29A C37A it is 0.14. The figure for A4G A11C A14G U43A is 0.01. In the case of A4G A26U U32C G33U, the self-cleavage was determined as 0. Turning to A4C C13U G17U G29A, the self-cleavage was 0.07.

Take A4C C18U U34C: the self-cleavage was 0.77.

Take A4C G22A A39C G40C: the self-cleavage was found to be 0.02. Then A4C G7A C10A U34A, with 0.06; and A4C U20A G30U G44U, with 0.01; and A4C C31G G36C U43G, with 0.11. Then A4G A25U G27U C42G, with 0.02.

On to A4C G17C A24U C31G G40U, for which the self-cleavage is 0.06. The figure for A4C U9A U20C U32G A39U C42G is 0.01; for A4G A11C G19C C23U A24C C46A it is 0.01.

For A4C U34G G36U C42U, the self-cleavage turned out to be 0. A4G A24U U34C C37G: the self-cleavage was 0.01.

In the case of A4G A11G A41U C42A G44U, the self-cleavage is 0. Then A4G A16U G17A A41G, with 0.04; and A4C U9A A16C, with 0.3; and A4C U32C G33A C46A, with 0.11.

In the case of A4C C15A U28A, the self-cleavage is 0.09.

Regarding A4C C13A G27A C31G, the self-cleavage was 0.06. The figure for A4G A12U A14G G19A U28G is 0.22; for A4G A16G A41U it is 0.18. On to A4G A11G A25C, for which the self-cleavage amounted to 0.04. The figure for A4C C18G A25C G44C is 0.06; for A4C U34C G36A it is 0.05; for A4C G22A A39G it is 0.05. The figure for A4C G33C U34G C45A is 0.01; for A4C G17U C18A G33C it is 0.03; for A4C G5A C10A A16G it is 0.02. With A4G A12U G19U, the self-cleavage was found to be 0.02. Then A4C G27A U43A, with 0.08; and A4C C42U C45A C46A, with 0.01; and A4C G17C G27C G29U, with 0.06. Then A4C G7C G17A U43A, with 0.31; and A4C C10U C18G U28A A41C, with 0.02; and A4C G7U A11G A14C C46A, with 0.01. Then A4C G17U G36C C37U A41C, with 0.
